{"source": "PubChem BioAssay AID686979", "about": "(National Center for Advancing Translational Sciences (NCATS), 2013)", "note": "Several values for one entry are separate records, joined by “and”; a condition that tells them apart may be missing. Equal values may be shown once. Among all 420,000 compounds or so, about 50,000 (12%) were called active. Inconclusive means that the source gave no clear call. Such entries were picked first, then a sample of the others. The call rests on the fitted dose curve; in most records, active means well fitted inhibition curve with a large enough effect; inconclusive means small, poorly fitted or top-dose-only effect; inactive means flat fitted curve, though single readings scatter. Potencies of inconclusive entries are doubtful fits and often do not repeat. On the % scale 0 is the no-effect control and ±100 the full control effect; potency means the concentration at half of the fitted maximal effect; tags describe the fitted curve by direction and shape."}
{"test": "qHTS for Inhibitors of human tyrosyl-DNA phosphodiesterase 1 (TDP1): qHTS in cells in presence of CPT; further: nearly all actives have a fitted effect of over 55% in size", "details": "chicken DT40 Tdp1-/-;hTDP1 cells + 20 nM CPT, ATP luminescence, 48 h; activity change, negative = growth inhibition: at 46.2 µM (top of the series) unless noted", "summary_of_the_method": "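Cell growth measured by CellTiter-Glo luminescence after a minimum 48 h, 37 C compound exposure with 20 nM CPT in Tdp1-knockout DT40 cells stably expressing hTDP1, seeded 400/well; qHTS titration format.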"}
{"smiles": "CCC(C(=O)Nc1ccc(C(=O)OC)cc1)n1c(=O)c(-c2ccccc2NC(C)=O)nc2ccccc21", "note": "(configuration not stated)", "Potency": "active: 14.6 µM"}
{"smiles": "CCOC(=O)N1CCN(c2ncnc3scc(-c4ccccc4)c23)CC1", "Potency": "active: 14.6 µM"}
{"smiles": "COc1ccc(C(C(=O)NCC2CCCO2)N(C(=O)CNC(=O)c2ccco2)c2cc(C)ccc2C)cc1OC", "note": "(configuration not stated)", "activity change, negative = growth inhibition": "inactive: -0.0528%"}
{"smiles": "O=C1N/C(=N\\c2ccccn2)SC1Cc1ccccc1Cl", "note": "(configuration not stated)", "Potency": "inconclusive: 25.9 µM [inhibitor, partial curve, poor fit]"}
{"smiles": "Cc1c2ccccc2nc2c(F)c(N(C)C)c(F)c(F)c12", "Potency": "inconclusive: 16.4 µM [inhibitor, partial curve]"}
{"smiles": "COc1ccc(OC)c(NC(=O)CSc2ccc3nnc(-c4cccnc4)n3n2)c1", "activity change, negative = growth inhibition": "inactive: -12.8%"}
{"smiles": "Cc1cc(C)c(COCc2cc(/C=N/O)c(C)cc2C)cc1/C=N/O", "Potency": "inconclusive: 23.1 µM [inhibitor, single point]"}
{"smiles": "COC(=O)c1c(NC(=O)Cc2ccccc2)sc2c1C(C(=O)OC)CC2", "note": "(configuration not stated)", "Potency": "inconclusive: 29.1 µM [inhibitor, single point]"}
{"smiles": "O=C(NCCC(=O)N1CCCC(C(F)(F)F)C1)c1ccccc1Cl", "note": "(configuration not stated)", "activity change, negative = growth inhibition": "inactive: -2.55%"}
{"smiles": "Cc1ccc(NC(=S)Nc2cccc3ccccc23)cc1F", "Potency": "inconclusive: 29.1 µM [inhibitor, single point]"}
{"smiles": "Cc1ccc(NC(=O)c2cc(S(=O)(=O)NCCC3=CCCCC3)ccc2F)cc1F", "Potency": "inconclusive: 23.1 µM [inhibitor, single point] and inconclusive: 29.1 µM [inhibitor, single point]"}
{"smiles": "COc1ccc(Cl)cc1NC(=O)c1ccc2nc(Cc3ccccc3)oc2c1", "Potency": "inconclusive: 16.4 µM [inhibitor, single point]"}
{"smiles": "Cc1[nH]c2ccccc2c1C(=O)C(=O)N1c2ccccc2CC1C", "note": "(configuration not stated)", "Potency": "inconclusive: 23.1 µM [inhibitor, single point]"}
{"smiles": "CCC1CN(CCNC(=O)c2cn3cc(C)ccc3n2)Cc2cc(OC)ccc2O1", "note": "(configuration not stated)", "activity change, negative = growth inhibition": "inactive: 3.07% [at 9.04 µM]"}
{"smiles": "CCCCSCCCNC(=O)c1ccc2c(c1)N(CC)C(=O)c1ccccc1S2=O", "note": "(configuration not stated)", "Potency": "active: 18.4 µM"}
{"smiles": "CC(C)c1ccc(NC(=O)CSc2nnc(CN3CCOCC3)n2C)cc1", "activity change, negative = growth inhibition": "inactive: 1.05%"}
{"smiles": "COC(=O)c1ccccc1NC(=O)CN1CCC(C(=O)c2ccc3c(c2)OCCO3)CC1", "Potency": "inconclusive: 18.4 µM [inhibitor, single point]"}
{"smiles": "Cc1ncoc1C(=O)N1CCc2c([nH]c3ccccc23)C1C1CCCCC1", "note": "(configuration not stated)", "Potency": "inconclusive: 4.11 µM [inhibitor, single point]"}
{"smiles": "CCOC(=O)N1CCN(Cc2nc3cc(NC(=O)C(C)C)ccc3n2C)CC1", "activity change, negative = growth inhibition": "inactive: -1.93%"}
{"smiles": "CCCCC/C=C\\C\\C=C/C=C/C=C/[C@@H](SC[C@H](N)C(=O)NCC(=O)O)[C@@H](O)CCCC(=O)O", "activity change, negative = growth inhibition": "inactive: -4.42% [at 0.628 µM]"}
{"smiles": "O=C1CCCC/C1=N\\Nc1ccc(OCc2ccccc2)cc1", "activity change, negative = growth inhibition": "inactive: 0.417%"}
{"smiles": "CCCS(=O)(=O)n1nc(-c2ccc(Br)cc2)cc1N", "activity change, negative = growth inhibition": "inactive: -25.4%"}
{"smiles": "Cc1c(NC(=O)c2cc(-c3ccc(Cl)s3)nc3ccccc23)c(=O)n(-c2ccccc2)n1C", "Potency": "inconclusive: 18.4 µM [inhibitor, partial curve, poor fit]"}
{"smiles": "CCCC(=O)Nc1cc(C)c(O)c(-c2nc3ncccc3o2)c1", "activity change, negative = growth inhibition": "inactive: -9.26%"}
{"smiles": "Cc1ccc(N2CC(C(=O)Nc3ccc(S(=O)(=O)Nc4ncccn4)cc3)CC2=O)cc1C", "note": "(configuration not stated)", "activity change, negative = growth inhibition": "inactive: 12%"}
{"smiles": "Cc1ccc(-n2nc(C(=O)N3CCN(c4cc(Cl)ccc4C)CC3)c(=O)n(C)c2=O)cc1", "Potency": "inconclusive: 23.1 µM [inhibitor, single point]"}
{"smiles": "O=Cc1c(NCc2cccc(F)c2)c2ccccc2[nH]c1=O", "activity change, negative = growth inhibition": "inactive: 11.7%"}
{"smiles": "COc1ccc(NC(=O)c2cccc(OS(=O)(=O)N(C)C)c2)cc1", "Potency": "active: 18.4 µM"}
{"smiles": "CC(=O)Nc1c(O)nc(SCC(=O)Nc2cccc(C)c2)[nH]c1=O", "activity change, negative = growth inhibition": "inconclusive: -11.8% [inhibitor]"}
{"smiles": "CCOc1ccc(CC(=O)NCc2ccc3c(c2)cc(C)n3C)cc1", "Potency": "inconclusive: 32.6 µM [inhibitor, single point]"}
{"smiles": "CCOc1ccc(S(=O)(=O)NCCC(=O)N2CCN(c3ncccn3)CC2)cc1", "activity change, negative = growth inhibition": "inactive: -0.948%"}
{"smiles": "Cc1ccc(S(=O)(=O)N2[C@H](CC(=O)c3cccs3)OC[C@@H]2C)cc1", "Potency": "inconclusive: 29.1 µM [inhibitor, single point]"}
{"smiles": "CC(NC(=O)c1ccc(S(=O)(=O)C(F)F)cc1)c1ccccc1", "note": "(configuration not stated)", "Potency": "inconclusive: 16.4 µM [inhibitor, single point]"}
{"smiles": "CCn1c(=O)c(CCC(=O)NCC2CCCO2)c(C)c2c(C)nn(-c3ccccc3)c21", "note": "(configuration not stated)", "Potency": "active: 16.4 µM"}
{"smiles": "CC1CCc2sc(NC(=O)c3ccc(N4C(=O)CCC4=O)cc3)c(C(N)=O)c2C1", "note": "(configuration not stated)", "Potency": "inconclusive: 29.1 µM [inhibitor, single point]"}
{"smiles": "CCc1ccc(C(=O)c2cn(CC(=O)Nc3ccc(F)c(F)c3)c3cc(OC)c(OC)cc3c2=O)cc1", "Potency": "active: 20.6 µM"}
{"smiles": "Cc1nc2ccccc2c(=O)n1NC(=O)CCC(=O)O", "activity change, negative = growth inhibition": "inactive: -3.3%"}
{"smiles": "CC(C)(C)c1ccc(C(=O)c2c[nH]c(C(=O)NCC3CCCO3)c2)cc1", "note": "(configuration not stated)", "Potency": "inconclusive: 20.6 µM [inhibitor, single point]"}
{"smiles": "COc1ccc(C(C(=O)Nc2ccc3c(c2)OCCO3)n2c(=O)c(-c3ccco3)nc3ccccc32)cc1", "note": "(configuration not stated)", "Potency": "active: 11.6 µM"}
{"smiles": "CCCNC(=O)c1ccc(N2CCC3(CC2)CC(c2ccccc2)=NO3)c(NC(=O)Cc2ccc(F)cc2)c1", "Potency": "inconclusive: 29.1 µM [inhibitor, single point]"}
{"smiles": "Cc1cc([N+](=O)[O-])nn1CC(=O)N1c2ccccc2CC1C", "note": "(configuration not stated)", "activity change, negative = growth inhibition": "inconclusive: -34.6% [inhibitor]"}
{"smiles": "O=C(c1ccccc1F)N1CCN(c2ccc([N+](=O)[O-])c(NCc3cccnc3)c2)CC1", "Potency": "inconclusive: 29.1 µM [inhibitor, single point]"}
{"smiles": "Cc1cc(C)c(NC(=O)CSc2ccnc(=O)[nH]2)c(C)c1", "Potency": "inconclusive: 10.3 µM [inhibitor, partial curve, poor fit]"}
{"smiles": "COc1ccc(OC)c(CN2CCN(C(=O)c3cccc(S(=O)(=O)Nc4ccccc4OC)c3)CC2)c1", "Potency": "inconclusive: 29.1 µM [inhibitor, single point]"}
{"smiles": "O=C1CC2(CCCC2)C(=O)N1CN1CCN(S(=O)(=O)c2ccc(F)cc2F)CC1", "activity change, negative = growth inhibition": "inactive: 2.4%"}
{"smiles": "O=C(CSc1nccc2ccccc12)N1CCN(Cc2ccc3c(c2)OCO3)CC1", "Potency": "inconclusive: 18.4 µM [inhibitor, single point]"}
{"smiles": "COc1cc(NC(=O)CCn2c(-c3ccccc3)cc(C(C)=O)c2C)cc(OC)c1", "Potency": "inconclusive: 23.1 µM [inhibitor, single point]"}
{"smiles": "COn1c(=O)c(-c2cccs2)[n+]([O-])c2ccccc21", "Potency": "active: 16.4 µM"}
{"smiles": "CCc1cc2c(NCC(=O)O)ncnc2s1", "activity change, negative = growth inhibition": "inactive: -2.96%"}
{"smiles": "COc1ccc(-c2noc(N3CCC(C(=O)NC(C)c4ccccc4)CC3)n2)cc1", "note": "(configuration not stated)", "Potency": "inconclusive: 29.1 µM [inhibitor, single point]"}
{"smiles": "CC(C)(C)c1cc(C(=O)Nc2cccnc2)cc(C(=O)Nc2cccnc2)c1", "Potency": "inconclusive: 29.1 µM [inhibitor, single point]"}
{"smiles": "COc1ccc(S(=O)(=O)N(CC(=O)NCc2ccco2)c2ccc(C)cc2)cc1OC", "activity change, negative = growth inhibition": "inactive: 0.141%"}
{"smiles": "Cn1nc(-c2ccccc2)cc1NC(=O)c1ccc(Cl)cc1", "activity change, negative = growth inhibition": "inactive: -29.8%"}
{"smiles": "COc1ccc(C(=O)Nc2ccnn2C2CCN(C(=O)c3cccnc3)CC2)cc1", "activity change, negative = growth inhibition": "inactive: -15.3%"}
{"smiles": "COc1cccc(/C=N/Nc2cc(C)nc(-c3ccccc3O)n2)c1O", "Potency": "active: 18.4 µM"}
{"smiles": "Cc1cc(C(=O)COC(=O)C2CC2)c(C)n1-c1ccc(F)cc1", "activity change, negative = growth inhibition": "inactive: -3.09%"}
{"smiles": "Cn1ccnc1SCC(=O)N1CCN(S(=O)(=O)c2ccccc2)CC1", "Potency": "inconclusive: 6.51 µM [inhibitor, single point]"}
{"smiles": "Cc1cccc(CNC(=O)c2oc3c(c2C)-c2nn(Cc4ccccc4Cl)cc2CC3)c1", "Potency": "inconclusive: 18.4 µM [inhibitor, single point]"}
{"smiles": "CCCS(=O)(=O)NC(=O)C1(C)CCCN(C(=O)c2oc3ccccc3c2C)C1", "note": "(configuration not stated)", "activity change, negative = growth inhibition": "inactive: -22.2%"}
{"smiles": "CCCCCCCCCC[n+]1ccc(/C=C/c2ccc(N(C)C)cc2)c2ccccc21", "Potency": "active: 0.355 µM"}
{"smiles": "Cc1cc(=O)oc(C)c1C(=O)NCCCN1CCN(c2ccccc2F)CC1", "activity change, negative = growth inhibition": "inactive: -16.5%"}
{"smiles": "O=C(COc1coc(CN2CCN(Cc3ccccc3)CC2)cc1=O)Nc1ccccc1", "activity change, negative = growth inhibition": "inactive: -10.1%"}
{"smiles": "COc1ccc(CCN=C(N)NS(=O)(=O)c2ccc3ccccc3c2)cc1", "activity change, negative = growth inhibition": "inactive: -19.5%"}
{"smiles": "Cc1nnc(NC(=O)c2cc(S(=O)(=O)N(C)C)ccc2N2CCCC2)s1", "Potency": "inconclusive: 29.1 µM [inhibitor, single point]"}
{"smiles": "COC(=O)[C@H](CC(C)C)NC(=O)/C=C/[C@H]1O[C@@H](n2ccc(=O)[nH]c2=O)[C@H](O)[C@@H]1O", "activity change, negative = growth inhibition": "inactive: 1.51%"}
{"smiles": "CCCCn1c(SCn2nnc3ccccc3c2=O)nc2cc(S(N)(=O)=O)ccc21", "activity change, negative = growth inhibition": "inactive: -23.9%"}
{"smiles": "Cc1cccc(OCCCC(=O)NNC(=O)CCN2CCN(c3ccccc3)CC2)c1", "Potency": "inconclusive: 23.1 µM [inhibitor, single point]"}
{"smiles": "CCCCN(C(=O)C1CCCO1)c1c(N)n(CC(C)C)c(=O)[nH]c1=O", "note": "(configuration not stated)", "activity change, negative = growth inhibition": "inactive: 18.2%"}
{"smiles": "CNc1ncnc2c1ncn2[C@H]1CN(CCc2ccccc2)C[C@@H](CO)O1", "Potency": "inconclusive: 29.1 µM [inhibitor, single point]"}
{"smiles": "O=C(NCc1ccccc1)Nc1cccn(Cc2c(F)cccc2Cl)c1=O", "Potency": "inconclusive: 18.4 µM [inhibitor, single point]"}
{"smiles": "COC(=O)c1ccc(/C=C/C(=O)O)cc1", "activity change, negative = growth inhibition": "inactive: -0.631%"}
{"smiles": "CN(c1ccccc1)S(=O)(=O)c1cccc(C(=O)NCc2ccccc2)c1", "Potency": "inconclusive: 20.6 µM [inhibitor, single point]"}
